Paper PMC6395948 (Molecular Cell, 2019)

Target: the molecule itself
Test: crystal structure

B1: McbC (enzyme, Escherichia coli)
chain: MSKHELSLVEVTHYTDPEVLAIVKDFHVRGNFASLPEFAERTFVSAVPLAHLEKFENKEVLFRPGFSSVINISSSHNFSRERLPSGINFCDKNKLSIRTIEKLLVNAFSSPDPGSVRRPYPSGGALYPIEVFLCRLSENTENWQAGTNVYHYLPLSQALEPVATCNTQSLYRSLSGGDSERLGKPHFALVYCIIFEKALFKYRYRGYRMALMETGSMYQNAVLVADQIGLKNRVWAGYTDSYVAKTMNLDQRTVAPLIVQFFGDVNDDKCLQ
stoichiometry N: 2
